# In all, about 390,000 compounds went through this assay and about 17,000 (4.4%) were called active. This list was built around the results that the source calls inconclusive (neither active nor inactive); the mix of calls is not that of the screen. Calls come from the whole dose curve; as a rule, active = well fitted inhibition curve with a large enough effect; inconclusive = small, poorly fitted or top-dose-only effect; inactive = no such curve, though single readings can be large or run the other way. Potencies beside an inconclusive call are fits to weak or partial responses and may not hold up.
# Target: Lysine-specific demethylase 4A (Homo sapiens) (UniProt O75164)
# Assay: qHTS Assay for Inhibitors of JMJD2A-Tudor Domain; note: nearly all actives have a fitted effect of over 50% in size
# Conditions: AlphaScreen JMJD2A-Tudor / H3K4me3 peptide binding; series mostly up to 114 µM
# Potency is the fitted concentration of half-maximal effect; tags give direction and shape of the fitted curve.
# UniProt O75164, sequence (O75164 whole entry, looked up, the tested form may be a part): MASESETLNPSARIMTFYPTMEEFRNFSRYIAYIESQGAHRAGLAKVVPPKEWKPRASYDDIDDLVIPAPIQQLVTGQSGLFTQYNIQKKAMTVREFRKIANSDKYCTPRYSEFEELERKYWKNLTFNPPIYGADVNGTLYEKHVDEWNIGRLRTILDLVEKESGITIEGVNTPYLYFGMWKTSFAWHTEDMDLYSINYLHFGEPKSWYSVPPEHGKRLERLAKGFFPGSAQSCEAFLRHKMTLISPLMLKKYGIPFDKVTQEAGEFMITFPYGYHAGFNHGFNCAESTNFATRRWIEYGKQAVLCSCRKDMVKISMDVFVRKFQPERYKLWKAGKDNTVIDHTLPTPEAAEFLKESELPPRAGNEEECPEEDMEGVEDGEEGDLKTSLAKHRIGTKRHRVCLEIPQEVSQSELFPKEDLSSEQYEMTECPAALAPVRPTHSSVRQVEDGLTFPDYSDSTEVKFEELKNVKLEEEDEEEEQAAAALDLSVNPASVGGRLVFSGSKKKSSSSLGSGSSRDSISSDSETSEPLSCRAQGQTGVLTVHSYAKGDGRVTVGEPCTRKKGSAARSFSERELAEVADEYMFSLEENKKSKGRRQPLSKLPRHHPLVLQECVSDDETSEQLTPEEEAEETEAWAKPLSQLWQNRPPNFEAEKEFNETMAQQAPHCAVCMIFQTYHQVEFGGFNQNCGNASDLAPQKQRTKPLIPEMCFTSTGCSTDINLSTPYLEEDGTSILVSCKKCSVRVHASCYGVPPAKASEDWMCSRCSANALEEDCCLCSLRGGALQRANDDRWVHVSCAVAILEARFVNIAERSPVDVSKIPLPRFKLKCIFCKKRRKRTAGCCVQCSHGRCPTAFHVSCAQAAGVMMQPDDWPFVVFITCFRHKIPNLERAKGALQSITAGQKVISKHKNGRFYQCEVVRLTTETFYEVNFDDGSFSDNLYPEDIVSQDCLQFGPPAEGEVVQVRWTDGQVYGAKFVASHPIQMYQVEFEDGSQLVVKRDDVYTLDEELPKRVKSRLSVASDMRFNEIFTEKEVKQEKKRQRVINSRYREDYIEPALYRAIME
row,SMILES,Potency
1,Cc1ccc(NC(=O)CCc2c(C)nc3ncnn3c2C)cc1,inactive
2,O=C(Nc1ccc(-c2csc(Nc3ccccc3)n2)cc1)c1cc([N+](=O)[O-])cc(C(F)(F)F)c1,"inconclusive: 44.7 µM [inhibitor, partial curve]"
3,CC1CN(C(=S)Nc2cccc(Cl)c2)CC(C)O1 (configuration not stated),inactive
4,CCc1c(C)sc(NC(=O)c2cc(CC(C)C)on2)c1C#N,inactive
5,COc1ccc(Br)cc1S(=O)(=O)n1c([N+](=O)[O-])cnc1C,inactive
6,CC1(C)Cc2cccc(OCC(=O)N3CCN(c4ccc([N+](=O)[O-])cc4)CC3)c2O1,"inconclusive: 39.8 µM [inhibitor, partial curve]"
7,COc1ccc(-n2c(SCc3cn4c(C)cccc4n3)nc3ccccc3c2=O)cc1OC,"inconclusive: 44.7 µM [inhibitor, partial curve]"
8,CSc1ccc(C2C(C(=O)c3ccco3)=C(O)C(=O)N2c2nnc(SC)s2)cc1 (configuration not stated),active: 7.08 µM
9,Cc1ccc(S(=O)(=O)NCC(=O)NCC(=O)N(C)Cc2ccc3ccccc3c2)cc1C,inactive
10,CCN1C(=NCCc2cccnc2)N[C@@H](c2ccccc2)C(C(=O)OC)=C1C,"inconclusive: 15.8 µM [inhibitor, full curve, poor fit]"
11,Cc1ccc(-c2ccc(/C=N/NC(=O)CN3CCCC3)o2)cc1Cl,"inconclusive: 35.5 µM [inhibitor, partial curve]"
12,COc1cc(C)ccc1OCCSc1nc2ccc(NC(C)=O)cc2s1,"inconclusive: 22.4 µM [inhibitor, full curve, poor fit]"
13,CSc1ncc(Sc2ccccc2)c(C(=O)O)n1,"inconclusive: 89.1 µM [inhibitor, single point]"
14,O=C(c1ccccc1)C1(c2ccccc2)OC1c1ccccc1 (configuration not stated),inactive
15,O=C1COc2ccc(-c3csc(NCCc4ccccc4)n3)cc2N1,"inconclusive: 56.2 µM [inhibitor, partial curve]"
16,CN(C)c1ccc(C(CC(=O)c2ccccc2)C2CCCCC2=O)cc1 (configuration not stated),"inconclusive: 20 µM [inhibitor, partial curve]"
17,Cc1c(C(=O)N(C)C)sc2c1c(=O)n(-c1ccccc1C(F)(F)F)c(=O)n2Cc1cccc(F)c1,inactive
18,NC(=S)NN=C(c1ccccc1)c1ccccc1,"inconclusive: 56.2 µM [inhibitor, partial curve]"
19,COc1ccc(C(=O)Nc2nc3c(s2)Cc2cc(OC)ccc2-3)cc1,inactive
20,CN1COc2ccc3ccccc3c2C1,inactive
21,Cc1c(CN2CCC(CO)(Cc3cccc(C(F)(F)F)c3)CC2)c2ccccc2n1C,"inconclusive: 50.1 µM [inhibitor, partial curve]"
22,COc1ccc(NC(=O)CSc2oc(-c3ccco3)nc2S(=O)(=O)c2ccccc2)c(OC)c1,inactive
23,O=C1C=CC(=O)N1c1ccccn1,active: 89.1 µM
24,Clc1ccc(-c2nnc(-c3ccco3)nc2N2CCCCC2)cc1,active: 44.7 µM

row,SMILES,Potency
1,Cc1nn(-c2ccccc2)c(C)c1/C=N/n1c(-c2ccc(C(C)(C)C)cc2)n[nH]c1=S,"inconclusive: 50.1 µM [inhibitor, partial curve]"
2,OC(CNCC1COc2ccccc2O1)COCc1cccs1 (configuration not stated),active: 1.58 µM
3,Cn1c(SCC(=O)Nc2nncs2)nnc1C1CC1,active: 56.2 µM
4,Cc1nc2sc(C(c3cccs3)N3CCN(c4ccccc4)CC3)c(O)n2n1 (configuration not stated),inactive
5,Cc1ccc(Nc2nc(CSc3n[nH]c(N)n3)cs2)cc1,"inconclusive: 31.6 µM [inhibitor, partial curve, poor fit]"
6,Cc1ccc2nc(NC(=O)CN3CCOCC3)sc2c1,"inconclusive: 100 µM [inhibitor, single point]"
7,O=C1CSC(=S)N1Cc1cccnc1,"inconclusive: 56.2 µM [inhibitor, partial curve]"
8,CCOC(=O)Cc1csc(NC(=O)CN2CCCCC2)n1,"inconclusive: 39.8 µM [inhibitor, single point]"
9,COc1cc(C2C(C#N)=C(N)Oc3c2c(-c2ccccc2)nn3-c2ccccc2)cc(OC)c1OC (configuration not stated),"inconclusive: 56.2 µM [inhibitor, partial curve]"
10,Nc1c(C(=O)c2ccccc2)sc(Nc2ccc(Cl)c(Cl)c2)c1C(=O)Nc1ccccc1,active: 44.7 µM
11,NC(=O)c1cc(-c2csc(NCCc3ccccc3)n2)ccc1O,"inconclusive: 35.5 µM [inhibitor, full curve]"
12,Cc1ccc2c(c1)N(C(=O)N1CCC(C(=O)NCc3ccccc3F)CC1)CC(C)O2 (configuration not stated),"inconclusive: 3.98 µM [inhibitor, single point]"
13,N#Cc1ccccc1OCC(=O)N1CCN(c2ccccc2F)CC1,"inconclusive: 89.1 µM [inhibitor, single point]"
14,CC(C)C(=O)Nc1cccc(COc2ccccc2CN(Cc2ccccc2)C(=O)OC(C)(C)C)c1,inactive
15,Cc1ccc(-c2nnc(SCC(=O)N/N=C/c3ccc(C)s3)n2-c2ccccc2)cc1,"inconclusive: 44.7 µM [inhibitor, single point]"
16,O=C(NCc1n[nH]c(=S)n1-c1ccc(F)cc1)c1ccc(S(=O)(=O)N2CCCCC2)cc1,"inconclusive: 56.2 µM [inhibitor, partial curve]"
17,Cc1ccc(C(=O)NCC(c2cccnc2)N2CCc3ccccc3C2)cc1C (configuration not stated),"inconclusive: 39.8 µM [inhibitor, single point]"
18,Cc1ccc(/C=N/NC(=O)c2nnn(-c3nonc3N)c2CSc2ccc(Cl)cc2)o1,inactive
19,C=CCNC(=S)N1CCN(Cc2ccc3c(c2)OCO3)CC1,active: 14.1 µM
20,COc1ccc(CC(=O)N/N=C/c2c(C)n(C)c3ccccc23)cc1OC,"inconclusive: 39.8 µM [inhibitor, partial curve]"
21,O=[N+]([O-])c1ccccc1S(=O)(=O)Nc1ccc(-c2ccc3nncn3n2)cc1,inactive
22,O=C(NCCN1C(=O)S/C(=C\c2ccc(F)cc2)C1=O)C1CCN(S(=O)(=O)c2cccs2)CC1,"inconclusive: 39.8 µM [inhibitor, full curve]"
23,NC(=O)c1ccc(Nc2ccc3c(c2)CCC3)c([N+](=O)[O-])c1,"inconclusive: 8.91 µM [inhibitor, full curve, poor fit]"
